# In all, about 110,000 compounds were measured (“z-score”: median about -0.1, highest 2% from about 2 on). This is one part of the list. The source made the active and inactive calls.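 Rule for the calls: active = z-score in the third read window above 3 or below -3; inactive = the rest.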
# Target: Metabotropic glutamate receptor 8 (Rattus norvegicus) (UniProt P70579)
# Test: mGluR8 Gi/Go-coupled signaling modulation – cell-based, rat, thallium flux, HTS, primary screen (AID 488969)
# Settings: HEK293 rat mGluR8, GIRK (G protein-gated inwardly rectifying potassium channel) thallium flux, FluoZin2; at 10 µM; stronger effect = higher value; submaximal glutamate (EC20) added with thallium
# Sequence of UniProt P70579 (P70579 whole entry, looked up): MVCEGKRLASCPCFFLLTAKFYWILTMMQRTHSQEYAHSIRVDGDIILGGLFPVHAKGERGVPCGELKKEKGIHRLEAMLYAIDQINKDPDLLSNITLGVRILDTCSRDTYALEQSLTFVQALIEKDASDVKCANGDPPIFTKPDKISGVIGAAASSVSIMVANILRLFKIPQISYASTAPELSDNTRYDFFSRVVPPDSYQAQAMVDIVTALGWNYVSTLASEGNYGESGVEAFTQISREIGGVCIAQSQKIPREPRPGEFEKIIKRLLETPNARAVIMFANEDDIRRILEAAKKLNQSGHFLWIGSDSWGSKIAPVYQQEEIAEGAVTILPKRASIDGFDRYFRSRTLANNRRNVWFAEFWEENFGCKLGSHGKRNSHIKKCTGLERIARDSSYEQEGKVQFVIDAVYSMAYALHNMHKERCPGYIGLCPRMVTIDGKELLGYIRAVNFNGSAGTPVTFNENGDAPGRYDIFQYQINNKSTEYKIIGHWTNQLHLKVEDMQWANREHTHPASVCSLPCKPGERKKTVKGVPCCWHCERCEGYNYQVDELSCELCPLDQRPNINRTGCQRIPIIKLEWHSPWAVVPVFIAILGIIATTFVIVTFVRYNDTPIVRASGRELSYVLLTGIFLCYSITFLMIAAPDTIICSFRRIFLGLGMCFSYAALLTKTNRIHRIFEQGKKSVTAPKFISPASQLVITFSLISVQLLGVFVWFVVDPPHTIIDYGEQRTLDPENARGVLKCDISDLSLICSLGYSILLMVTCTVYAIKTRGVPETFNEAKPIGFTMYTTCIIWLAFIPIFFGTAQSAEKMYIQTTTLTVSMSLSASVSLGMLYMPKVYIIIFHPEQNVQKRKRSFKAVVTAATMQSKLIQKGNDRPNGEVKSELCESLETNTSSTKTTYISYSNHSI
row,Compound,z-score
1,O=C(Nc1ccccc1)C1=C(O)CC(c2ccco2)CC1=Nc1ccccc1 (stereo unspecified),-0.41
2,Cc1ccc(OCC2Cn3c(nc4c3c(=O)n(C)c(=O)n4C)O2)cc1 (stereo unspecified),0.826
3,CC12CCC(C(=O)n3c1nc1ccccc13)C2(C)C (stereo unspecified),-1.56
4,O=C(COc1ncnc2ccccc12)NCc1ccc2c(c1)OCO2,0.256
5,C/C(=N\NC(=O)COc1ccc(C(C)(C)C)cc1)c1ccc(N2CCOCC2)cc1,-0.104
6,O=C(c1ccccc1)c1nn(-c2ccccc2)c(=O)cc1C(F)(F)F,-0.379
7,CC(=O)c1ccc(NC(=S)NC(NC(=O)c2ccco2)C(Cl)(Cl)Cl)cc1 (stereo unspecified),0.179
8,CCCCCCCC(=O)NN1CCOCC1,0.0256
9,N#Cc1c2n(cnc1=O)CCCCC2,0.382
10,CCC(=O)NC1=C(NC(C)c2ccccc2)C(=O)c2ccccc2C1=O (stereo unspecified),-0.128
11,Cn1c(=O)[nH]c(=O)c2c1nc(NCc1ccco1)n2CCCc1ccccc1,-0.11
12,CCN1C(=O)CC(N2CCN(C(c3ccccc3)c3ccccc3)CC2)C1=O (stereo unspecified),-0.246
13,O=C(O)c1ccc(CS(=O)c2cccc(C(F)(F)F)c2)o1 (stereo unspecified),0.152
14,CC1(C)C(=O)OC(c2cccn2-c2ccc([N+](=O)[O-])cc2)C(C)(C)C1=O (stereo unspecified),-0.471
15,COc1ccccc1CNC(=O)COC(=O)c1cc(-c2ccco2)nc2ccccc12,0.528
16,O=C(c1cc(-c2ccco2)on1)N1CCc2ccccc2C1,-0.364
17,COC(=O)c1ccc(CSc2nc3ccccc3c(=O)n2Cc2ccco2)o1,-0.977
18,CCOC(=O)c1c(-c2ccc(F)cc2)cn2ccccc12,-0.00825
19,CC1=C(C#N)C2C(/C1=N/O)C2(C)C (stereo unspecified),-0.347
20,CCc1nccn1C(=O)c1cnn2c(C(F)F)cc(-c3ccc(C)cc3)nc12,-0.0768
21,COc1ccc(/C=N/n2cnnc2SCCO)cc1OC,1.38
22,CC(C)(C)c1ccc(Cn2ccc(-c3ccc4c(c3)OCO4)n2)cc1,0.161
23,O=C1/C(=C/N(C(=O)c2ccco2)c2ccc(Br)cc2)Sc2ccccc21,0.116
24,O=Nc1c(O)n(Cc2ccc(Cl)cc2Cl)c2ccccc12,-0.436

row,Compound,z-score
1,COc1ccc(N(C(=O)CSCC(=O)Nc2cc(C)on2)C(C(=O)NC2CCCCC2)c2ccc(O)c(O)c2)cc1 (stereo unspecified),-0.354
2,O=C(C1CCCO1)N1CCN(C(=S)Nc2ccccc2F)CC1 (stereo unspecified),-0.183
3,CCS(=O)(=O)N1Cc2ccccc2CC1C(=O)N1CCN(c2ccccc2)CC1 (stereo unspecified),-0.0819
4,CN1CCN(S(=O)(=O)c2ccc(NC(=S)NC(=O)c3ccc(Cl)cc3)cc2)CC1,0.183
5,O=C(c1ccc(-c2nnc(Nc3ccccc3)c3ccccc23)cc1)N1C[C@H]2C[C@H](C1)c1cccc(=O)n1C2,-0.314
6,C=CCN1C(=O)/C(=C2/Sc3ccccc3N2C)SC1=Nc1c(C)n[nH]c1C,active: 3.97
7,Cc1cccc(C(=O)NC(=S)NNC(=O)c2cccs2)c1,active: 5.42
8,COc1cc(C2=NOC(C(=O)NCc3ccco3)C2)cc(OC)c1OC (stereo unspecified),0.0251
9,CC(C(=O)Nc1cccnc1)N1C(=O)c2ccccc2C1=O (stereo unspecified),-0.0959
10,CCc1cccc(OCCCCNCCCOC)c1,0.0451
11,C=CCn1c(N)c(C(=O)NCC2CCCO2)c2nc3ccccc3nc21 (stereo unspecified),-2.15
12,O=C(NC(=S)Nc1ccccc1N1CCCCC1)c1ccco1,active: 5.87
13,COc1ccccc1-n1c(SCC(N)=O)nnc1-c1ccc(S(=O)(=O)N2CCCCC2)cc1,-1.6
14,COc1ccc([N+](=O)[O-])cc1N(CC(=O)NCC1CCCO1)S(C)(=O)=O (stereo unspecified),-0.312
15,O=C(CC(c1ccccc1)c1cc(Br)ccc1O)NCCN1CCOCC1 (stereo unspecified),-0.0663
16,O=C(Nc1ccc(Cl)cc1)N1CCCC1,-0.318
17,NC(=O)CSC1=Nc2ccccc2C2=NC(CCC(=O)NCc3ccc(F)cc3)C(=O)N12 (stereo unspecified),0.0977
18,CCc1ccc(N2CC(C(=O)Nc3cc(C)ccc3F)CC2=O)cc1 (stereo unspecified),-0.82
19,O=C(NCCc1ccc(Cl)cc1)C1CC(=O)N(C2CCCCC2)C1 (stereo unspecified),0.179
20,CC(C)(C)n1nc2c(c1NC(=O)c1ccco1)CS(=O)C2 (stereo unspecified),0.0777
21,CCCCNC(=S)Nc1ccc([N+](=O)[O-])cc1,2
22,O=[N+]([O-])c1ccccc1-c1nc(-c2ccc(Br)o2)no1,-0.0756
23,O=C1CC(N(O)c2ccccc2)C(=O)N1c1cc(Cl)cc(Cl)c1 (stereo unspecified),-0.788
24,CC(=O)Nc1cccc(-c2csc(Nc3ccccn3)n2)c1,-0.112

row,Compound,z-score
1,COc1cc(C(C)=O)ccc1COc1ccc(C(=O)OCC(=O)NC(C)(C)C)cc1OC,-0.573
2,CC(=O)c1cc(C#N)c(SCc2ccccc2C#N)nc1C,0.092
3,Cc1cc(C)c(C2=NOC3C4CCC(C4)C23)c(C)c1 (stereo unspecified),-0.0502
4,CCN=C1SC(C(=O)Nc2ccccc2)CC(=O)N1CC (stereo unspecified),0.0876
5,CN1C(=O)CC(n2c(CO)nc3ccccc32)C1=O (stereo unspecified),0.113
6,O=C(CC(c1ccccc1)c1ccccc1)OCn1nnc2ccccc2c1=O,0.00482
7,COc1cc(NC(=S)Nc2ccc(Br)cc2Cl)c(OC)cc1Cl,1.2
8,Cc1sc(NC(=O)c2ccccc2)c(C#N)c1-c1ccccc1,0.642
9,O=c1[nH]c(CSc2nnc(-c3ccncc3)n2Cc2ccco2)nc2ccccc12,0.12
10,CCOc1ccc(NC(=O)CN(c2ccc(OC)cc2)S(C)(=O)=O)cc1,-0.128
11,CCOc1cccc(-c2nn3c(-c4ccco4)nnc3s2)c1,-2.8
12,CCc1nccn1S(=O)(=O)c1ccc(OC)c(C)c1C,-0.0989
13,Cc1occc1C(=O)NC1CCCc2ccccc21 (stereo unspecified),-0.0364
14,CCOC(=O)c1ccc(Oc2c(C)oc3cc(OS(C)(=O)=O)ccc3c2=O)cc1,-0.214
15,CC12CC(NC(=O)N1c1cccc(C(=O)N3CCN(c4ccccn4)CC3)c1)c1ccccc1O2 (stereo unspecified),-0.723
16,CCCCNC(=O)c1onc(CSc2cc(C)ccc2C)c1C(=O)O,-0.194
17,COC(=O)c1nnn(CC(=O)Nc2ccc(C)c(F)c2)c1C(=O)OC,0.151
18,CCOC(=O)c1cccc(-n2c(C)cc(C=O)c2C)c1,-2.64
19,CC(C)OCCCNC(=O)CN1C(=O)/C(=C/c2ccccc2)Sc2ccccc21,-0.569
20,CCOC(=O)c1ccc(NC(=O)Nc2cc(C)on2)cc1,-0.524
21,Cc1cc(Sc2nccn2C)ncc1[N+](=O)[O-],-0.3
22,Cc1ccc(N2CCN(/N=C/c3cccs3)CC2)cc1,-0.187
23,Cc1nnc(-c2ccccc2)nc1N1CCOCC1,-0.169

# Source: PubChem BioAssay AID488969 (Vanderbilt High Throughput Screening Facility, 2010)
